In article PMC9638020:
Results are given in words; binding and its absence hold for the method and conditions named. Binding seen in cells or lysates may run through a third protein. Some results given as binding are weak or reduced against the parent protein; the word gives no strength. Where a sequence is shown, tags or fusion partners need not be part of it.

By UniProt entry, the sequences of proteins in these tests, tags left out.
UniProt Q99836: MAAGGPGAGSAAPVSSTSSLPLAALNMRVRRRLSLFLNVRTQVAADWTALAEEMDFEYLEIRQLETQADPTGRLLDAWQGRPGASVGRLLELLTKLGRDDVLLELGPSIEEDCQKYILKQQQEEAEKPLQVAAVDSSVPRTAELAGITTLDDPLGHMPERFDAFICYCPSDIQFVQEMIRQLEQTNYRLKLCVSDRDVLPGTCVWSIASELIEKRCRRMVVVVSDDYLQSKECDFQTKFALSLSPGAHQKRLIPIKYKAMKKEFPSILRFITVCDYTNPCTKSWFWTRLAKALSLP
UniProt Q8IUC6: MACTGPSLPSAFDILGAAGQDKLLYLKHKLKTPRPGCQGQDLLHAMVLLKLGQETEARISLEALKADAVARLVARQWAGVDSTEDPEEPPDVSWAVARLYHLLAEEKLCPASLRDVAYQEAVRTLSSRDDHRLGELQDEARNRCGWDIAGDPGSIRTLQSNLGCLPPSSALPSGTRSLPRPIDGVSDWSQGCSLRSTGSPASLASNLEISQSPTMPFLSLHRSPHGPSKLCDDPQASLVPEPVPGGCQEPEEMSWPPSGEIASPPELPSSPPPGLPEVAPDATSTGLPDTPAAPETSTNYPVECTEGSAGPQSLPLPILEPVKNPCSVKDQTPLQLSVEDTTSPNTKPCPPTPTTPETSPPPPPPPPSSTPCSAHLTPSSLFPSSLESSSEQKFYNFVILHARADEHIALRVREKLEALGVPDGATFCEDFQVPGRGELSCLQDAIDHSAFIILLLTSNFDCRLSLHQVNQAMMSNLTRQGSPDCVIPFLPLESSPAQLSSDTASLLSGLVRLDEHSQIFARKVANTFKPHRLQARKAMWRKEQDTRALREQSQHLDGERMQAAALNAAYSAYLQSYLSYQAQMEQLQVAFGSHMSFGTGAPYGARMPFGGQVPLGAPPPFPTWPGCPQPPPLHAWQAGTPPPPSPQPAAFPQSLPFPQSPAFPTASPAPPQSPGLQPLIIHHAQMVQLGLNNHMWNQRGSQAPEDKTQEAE

B1: AIM2 (absent in melanoma 2) (protein, UniProt Q91VJ1 1-354)
chain: MESEYREMLLLTGLDHITEEELKRFKYFALTEFQIARSTLDVADRTELADHLIQSAGAASAVTKAINIFQKLNYMHIANALEEKKKEAERKLMTNTKKRGTQKVENRSQAENCSAASATRSDNDFKEQAATEVCPQAKPQKKQMVAEQEAIREDLQKDPLVVTVLKAINPFECETQEGRQEIFHATVATETDFFFVKVLNAQFKDKFIPKRTIKISNYLWHSNFMEVTSSSVVVDVESNHEVPNNVVKRARETPRISKLKIQPCGTIVNGLFKVQKITEEKDRVLYGIHDKTGTMEVLVLGNPSKTKCEEGDKIRLTFFEVSKNGVKIQLKSGPCSFFKVIKAAKPKTDMKSVE

Experiments:
[1] = target: T1, SARM1-FLAG (epitope-tagged SARM1 expressed endogenously with a triple FLAG tag and double strep tag on the C-terminal end, Sarm1^FLAG) (mouse (endogenous in Sarm1^FLAG iBMDMs)) (UniProt Q6PDS3); assay: co-IP; Sarm1^FLAG iBMDMs transfected with MyD88-HA or TRIF-HA, infected 20 h later with Kp52145 (MOI 100), collected at 3 h; RIPA lysates; anti-FLAG antibody and Protein A/G Plus agarose, 4°C; preimmune mouse IgG as negative control
T1 sequence: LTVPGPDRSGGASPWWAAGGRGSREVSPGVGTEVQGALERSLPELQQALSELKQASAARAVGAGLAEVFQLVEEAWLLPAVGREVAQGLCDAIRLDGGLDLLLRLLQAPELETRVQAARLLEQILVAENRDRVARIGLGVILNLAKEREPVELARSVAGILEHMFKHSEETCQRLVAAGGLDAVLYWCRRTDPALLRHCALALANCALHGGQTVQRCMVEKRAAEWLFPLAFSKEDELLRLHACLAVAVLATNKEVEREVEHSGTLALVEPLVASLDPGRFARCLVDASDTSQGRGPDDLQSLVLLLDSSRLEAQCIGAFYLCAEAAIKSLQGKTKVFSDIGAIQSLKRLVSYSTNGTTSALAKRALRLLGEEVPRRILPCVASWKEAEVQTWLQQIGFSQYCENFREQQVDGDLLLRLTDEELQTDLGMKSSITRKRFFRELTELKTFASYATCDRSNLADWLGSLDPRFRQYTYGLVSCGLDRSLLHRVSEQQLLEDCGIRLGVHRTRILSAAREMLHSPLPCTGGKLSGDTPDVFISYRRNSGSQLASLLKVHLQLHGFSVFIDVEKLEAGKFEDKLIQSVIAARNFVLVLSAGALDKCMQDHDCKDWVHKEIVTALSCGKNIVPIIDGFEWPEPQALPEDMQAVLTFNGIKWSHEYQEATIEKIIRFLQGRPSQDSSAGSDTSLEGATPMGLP

[2] = target: T1, SARM1-FLAG (epitope-tagged SARM1 expressed endogenously with a triple FLAG tag and double strep tag on the C-terminal end, Sarm1^FLAG) (mouse (endogenous in Sarm1^FLAG iBMDMs)); assay: co-IP; as a1 but non-infected Sarm1^FLAG iBMDMs transfected with MyD88-HA or TRIF-HA; anti-FLAG antibody and Protein A/G Plus agarose
[3] = target: T2, FLAG-SARM1 (retrovirally expressed in sarm1-/- iBMDMs) (mouse) (UniProt Q6PDS3); assay: co-IP; as a3 but non-infected sarm1-/- iBMDMs expressing FLAG-SARM1; anti-FLAG (M2) beads; immunoblot with anti-SARM1 and anti-AIM2
T2 sequence: T1 sequence

[4] = target: T2, FLAG-SARM1 (retrovirally expressed in sarm1-/- iBMDMs) (mouse); assay: co-IP; sarm1-/- iBMDMs expressing FLAG-SARM1, infected with Kp52145 for 24 h; anti-FLAG (M2) beads; immunoblot with anti-SARM1 and anti-AIM2

Molecule	binding [1]	binding [2]	binding [3]	binding [4]
MyD88-HA (from UniProt Q99836 1-296)	binds	no binding (condition: non-infected cells)		
TRIF-HA (from UniProt Q8IUC6 1-712)	binds	no binding (condition: non-infected cells)		
B1			no binding (condition: non-infected cells)	binds
